# Source: the supplement of paper PMC4967469
# How the values were obtained:
# Experiment in all cases: Viability of human cancer cell lines after 72 h of drug (GDSC screen)
# XMD11-85h = compound: COc1cc(C(=O)NC2CCN(C)CC2)ccc1Nc1ncc2c(n1)N(C1CCCC1)CCC(=O)N2C(C)C [XMD11-85h]; details: top dose 10 µM; top dose inferred
# Experimental: (§1)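 Human cancer cell lines in 384-well plates, medium with 10% serum, drug for 72 h over a 256-fold dose range (nine 2-fold or five 4-fold steps up to the top dose). Adherent lines were fixed and stained with the nucleic acid dye Syto60, suspension lines read with resazurin; signal relative to control wells, capped at 0 and 100%. One two-parameter sigmoid per drug and line, fitted in a mixed model over all curves with the slope shared within a line.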
# AZD6482 = compound: Cc1cc([C@@H](C)Nc2ccccc2C(=O)O)c2nc(N3CCOCC3)cc(=O)n2c1 [AZD6482]
# Experimental: as §1
# BMN-673 = compound: Cn1ncnc1[C@H]1c2n[nH]c(=O)c3cc(F)cc(c23)N[C@@H]1c1ccc(F)cc1 [BMN-673]; details: top dose 10 µM; top dose inferred
# Experimental: as §1
# MLN4924 = compound: NS(=O)(=O)OC[C@@H]1C[C@@H](n2ccc3c(N[C@H]4CCc5ccccc54)ncnc32)C[C@@H]1O [MLN4924]; details: top dose 1 µM; top dose inferred
# Experimental: as §1
# [1] = top dose 5 µM, screen: GDSC drug entry 1066, top dose inferred
# [2] = top dose 5.12 µM, screen: GDSC drug entry 156
Cell Line,AUC (XMD11-85h),IC50 (XMD11-85h),AUC (AZD6482; [1]),IC50 (AZD6482; [1]),AUC (AZD6482; [2]),IC50 (AZD6482; [2]),AUC (BMN-673),IC50 (BMN-673),AUC (MLN4924),IC50 (MLN4924)
"A375 (melanoma, adherent)",0.934,> 10 µM,0.955,> 5 µM,0.971,> 5.12 µM,0.429,0.416 µM,0.686,0.186 µM
"22RV1 (prostate, adherent)",0.913,> 10 µM,0.929,> 5 µM,0.954,> 5.12 µM,0.771,4.79 µM,0.892,> 1 µM
"SCC-15 (head and neck, adherent)",0.925,> 10 µM,0.907,> 5 µM,0.886,> 5.12 µM,0.81,7.69 µM,0.768,0.506 µM
"NCI-H720 (lung carcinoid, suspension)",0.979,> 10 µM,0.977,> 5 µM,0.992,> 5.12 µM,0.99,> 10 µM,0.878,0.865 µM
"SNU-C5 (large intestine, adherent)",0.97,> 10 µM,0.892,> 5 µM,,,0.784,4.71 µM,0.818,0.636 µM
"HARA (lung squamous cell carcinoma, adherent)",0.921,> 10 µM,0.949,> 5 µM,0.961,> 5.12 µM,0.689,2.34 µM,0.754,0.388 µM
"EKVX (lung adenocarcinoma, adherent)",0.932,> 10 µM,0.756,4.19 µM,0.912,> 5.12 µM,0.93,> 10 µM,0.95,> 1 µM
"NCI-H1651 (lung adenocarcinoma, adherent)",0.982,> 10 µM,0.883,> 5 µM,0.913,> 5.12 µM,0.321,0.189 µM,0.851,0.857 µM
"JURL-MK1 (chronic myeloid leukaemia, suspension)",0.973,> 10 µM,0.959,> 5 µM,0.987,> 5.12 µM,0.683,2.03 µM,0.813,0.539 µM
"ATN-1 (T-cell lymphoblastic leukaemia, suspension)",0.962,> 10 µM,0.854,3.55 µM,0.959,> 5.12 µM,0.821,5.32 µM,0.902,> 1 µM
"LU-65 (large cell lung carcinoma, suspension)",0.966,> 10 µM,0.987,> 5 µM,0.983,> 5.12 µM,0.974,> 10 µM,0.958,> 1 µM
"A704 (kidney, adherent)",0.964,> 10 µM,0.756,1.66 µM,0.951,> 5.12 µM,0.928,> 10 µM,0.948,> 1 µM
"NCI-H810 (large cell lung carcinoma, adherent)",0.945,> 10 µM,,,0.963,> 5.12 µM,0.771,3.68 µM,0.684,0.199 µM
"NCI-H929 (myeloma, suspension)",0.896,9.06 µM,0.719,1.16 µM,,,,,0.983,> 1 µM
"SW620 (large intestine, adherent)",0.984,> 10 µM,0.959,> 5 µM,0.979,> 5.12 µM,,,0.901,> 1 µM
"EMC-BAC-1 (lung adenocarcinoma, adherent)",0.931,> 10 µM,,,,,0.844,8.7 µM,0.952,> 1 µM
"NOMO-1 (acute myeloid leukaemia, suspension)",0.868,> 10 µM,0.785,2.45 µM,0.801,2.91 µM,,,0.738,0.332 µM
"NCI-H196 (small cell lung carcinoma, adherent)",0.987,> 10 µM,0.942,> 5 µM,0.931,> 5.12 µM,,,0.8,0.508 µM
"Jurkat (T-cell leukaemia, suspension)",0.91,9.73 µM,0.977,> 5 µM,,,,,0.705,0.208 µM
"G-MEL (melanoma, adherent)",0.938,> 10 µM,0.796,2.31 µM,0.609,0.634 µM,,,0.657,0.17 µM
"GAK (melanoma, adherent)",0.953,> 10 µM,,,0.883,5.03 µM,,,0.839,0.636 µM
"MDA-MB-468 (breast, adherent)",0.951,> 10 µM,,,,,,,0.771,0.37 µM
"TC-71 (Ewing sarcoma, adherent)",0.967,> 10 µM,0.983,> 5 µM,0.992,> 5.12 µM,,,0.789,0.362 µM
"K-562 (chronic myeloid leukaemia, suspension)",0.929,> 10 µM,,,,,,,0.945,> 1 µM

Cell Line,AUC (XMD11-85h),IC50 (XMD11-85h),AUC (AZD6482; [1]),IC50 (AZD6482; [1]),AUC (AZD6482; [2]),IC50 (AZD6482; [2]),AUC (BMN-673),IC50 (BMN-673),AUC (MLN4924),IC50 (MLN4924)
"COLO-829 (melanoma, adherent)",0.967,> 10 µM,0.936,> 5 µM,0.765,2.8 µM,0.823,> 10 µM,,
"OVCA433 (ovary, adherent)",0.955,> 10 µM,0.884,> 5 µM,,,0.602,1.23 µM,,
"HCC1937 (breast, adherent)",0.969,> 10 µM,0.928,> 5 µM,0.858,> 5.12 µM,,,0.872,> 1 µM
"LCLC-97TM1 (large cell lung carcinoma, adherent)",0.94,> 10 µM,,,0.868,> 5.12 µM,0.79,4.94 µM,,
"SNU-387 (liver, adherent)",0.958,> 10 µM,0.964,> 5 µM,0.886,> 5.12 µM,0.82,6.78 µM,,
"KU-19-19 (bladder, adherent)",0.872,9.55 µM,0.939,> 5 µM,0.985,> 5.12 µM,0.569,0.962 µM,,
"OV-90 (ovary, adherent)",0.939,> 10 µM,0.916,> 5 µM,0.931,> 5.12 µM,0.91,> 10 µM,,
"SJSA-1 (bone, adherent)",0.961,> 10 µM,,,0.947,> 5.12 µM,0.898,> 10 µM,,
"HCC38 (breast, adherent)",0.968,> 10 µM,0.959,> 5 µM,0.818,3.19 µM,,,0.829,0.689 µM
"SK-N-DZ (neuroblastoma, adherent)",0.819,5.59 µM,0.807,2.52 µM,0.947,> 5.12 µM,0.964,> 10 µM,,
"SW1783 (glioma, adherent)",0.988,> 10 µM,0.889,4.74 µM,0.495,0.31 µM,0.909,> 10 µM,,
"EVSA-T (breast, adherent)",0.915,> 10 µM,0.432,0.209 µM,0.832,2.64 µM,0.897,9.33 µM,,
"ESS-1 (endometrium, adherent)",0.969,> 10 µM,0.942,> 5 µM,0.897,> 5.12 µM,0.537,0.778 µM,,
"KM12 (large intestine, adherent)",0.984,> 10 µM,0.949,> 5 µM,0.927,> 5.12 µM,0.817,6.23 µM,,
"QGP-1 (pancreas, adherent)",0.967,> 10 µM,0.977,> 5 µM,,,0.951,> 10 µM,,
"RCC-JF (kidney, adherent)",0.98,> 10 µM,0.33,0.0988 µM,,,0.608,1.28 µM,,
"HT-29 (large intestine, adherent)",0.94,> 10 µM,0.986,> 5 µM,0.951,> 5.12 µM,,,0.86,0.833 µM
"SK-MM-2 (myeloma, suspension)",0.904,> 10 µM,0.963,> 5 µM,0.947,> 5.12 µM,0.961,> 10 µM,,
"PFSK-1 (medulloblastoma, adherent)",0.898,> 10 µM,0.986,> 5 µM,0.952,> 5.12 µM,0.773,4.15 µM,,
"no-11 (glioma, adherent)",0.981,> 10 µM,0.784,2.72 µM,0.949,> 5.12 µM,0.919,> 10 µM,,
"RCC-MF (kidney, adherent)",0.968,> 10 µM,0.73,1.74 µM,,,0.633,1.63 µM,,
"Daudi (Burkitt lymphoma, suspension)",0.876,7.76 µM,0.971,> 5 µM,0.691,1.01 µM,0.652,1.55 µM,,
"MFE-280 (endometrium, adherent)",0.954,> 10 µM,0.949,> 5 µM,0.918,> 5.12 µM,0.956,> 10 µM,,
"TMK-1 (stomach, adherent)",0.945,> 10 µM,0.784,2.26 µM,0.879,> 5.12 µM,0.767,3.93 µM,,

# IC50 is the fitted dose that halves viability relative to control wells, and lower means more sensitive; where the fit passes the top or lowest dose, that dose stands as a limit. AUC sums up the same curve from the lowest dose to the 256-fold higher top dose; values near 1 show little effect. The top dose, if marked as inferred, comes from the curve model; the source does not state it. For part of these data: An entry number marks a drug with two screens in the source, which often give different values.
